{"source": "the supplement of paper PMC4166925", "note": "± gives the standard deviation of the averaged measurements. Over roughly 33,000 sequences, “E-score (dimensionless, -0.5 to 0.5)” has its median near -0.049; the highest 2% begin near 0.37. This is one part of the list."}
{"tested_on": "T1, PmTbr T-box DNA-binding domain (GST fusion)", "T1 sequence": "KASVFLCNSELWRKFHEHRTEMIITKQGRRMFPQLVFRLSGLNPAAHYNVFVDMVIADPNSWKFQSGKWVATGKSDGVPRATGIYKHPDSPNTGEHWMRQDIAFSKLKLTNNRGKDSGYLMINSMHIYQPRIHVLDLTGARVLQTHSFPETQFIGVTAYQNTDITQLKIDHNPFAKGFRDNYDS", "assay": "PBM E-score of 8-mer (E-score (dimensionless, -0.5 to 0.5)); Tbr is Tbrain of the sea star Patiria miniata (Pm) or the sea urchin Strongylocentrotus purpuratus (Sp); higher = stronger binding preference; most listed sequences are background and not binding sites", "conditions": "the construct has about 5 more residues each side", "method": "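Universal protein-binding microarray (Agilent AMADID 016060, 60-bp probes with a 35-bp variable region) incubated with 200 nM GST-fused Patiria miniata Tbr T-box DNA-binding domain (residues 272-466) in PBS pH 7.5. Scored for every ungapped 8-mer (given with its reverse complement) by the Universal PBM Analysis Suite as E-score (modified Wilcoxon-Mann-Whitney enrichment, range -0.5 to 0.5; >0.45 counts as bound) and Z-score of median probe intensity. Two replicate arrays (datasets 1 and 2).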"}
{"sequence": "GAAGTAAC", "PBM E-score of 8-mer": "-0.0366 ± 0.017"}
{"sequence": "CGGGGAAA", "PBM E-score of 8-mer": "-0.182 ± 0.035"}
{"sequence": "TGCCATAA", "PBM E-score of 8-mer": "0.0817 ± 0.098"}
{"sequence": "GTGCAACA", "PBM E-score of 8-mer": "0.256 ± 0.011"}
{"sequence": "TACCCTAA", "PBM E-score of 8-mer": "-0.0671 ± 0.0095"}
{"sequence": "GTGTGATA", "PBM E-score of 8-mer": "0.46 ± 0.006"}
{"sequence": "AGGTTTAT", "PBM E-score of 8-mer": "-0.119 ± 0.0081"}
{"sequence": "AGGGTACC", "PBM E-score of 8-mer": "-0.0114 ± 0.0027"}
{"sequence": "GCGACATA", "PBM E-score of 8-mer": "0.188 ± 0.0051"}
{"sequence": "AAGATGGC", "PBM E-score of 8-mer": "0.0593 ± 0.083"}
{"sequence": "AATTCACC", "PBM E-score of 8-mer": "-0.049 ± 0.069"}
{"sequence": "GATATCCC", "PBM E-score of 8-mer": "-0.147 ± 0.05"}
{"sequence": "ACGGATCC", "PBM E-score of 8-mer": "-0.173 ± 0.0043"}
{"sequence": "CAATGTGC", "PBM E-score of 8-mer": "0.234 ± 0.021"}
{"sequence": "GATATGCA", "PBM E-score of 8-mer": "0.0467 ± 0.019"}
{"sequence": "ATGATCGA", "PBM E-score of 8-mer": "-0.138 ± 0.035"}
{"sequence": "GTCTGGAA", "PBM E-score of 8-mer": "-0.179 ± 0.069"}
{"sequence": "GACGTTAC", "PBM E-score of 8-mer": "-0.12 ± 0.043"}
{"sequence": "AAGGAGCG", "PBM E-score of 8-mer": "-0.147 ± 0.035"}
{"sequence": "ATTATGCC", "PBM E-score of 8-mer": "-0.245 ± 0.014"}
{"sequence": "CAGACATG", "PBM E-score of 8-mer": "0.0447 ± 0.02"}
{"sequence": "AGCTACCC", "PBM E-score of 8-mer": "-0.278 ± 0.0062"}
{"sequence": "ACAACCGA", "PBM E-score of 8-mer": "0.075 ± 0.073"}
{"sequence": "CGACCGTC", "PBM E-score of 8-mer": "-0.0536 ± 0.0096"}
{"sequence": "AATTCACT", "PBM E-score of 8-mer": "0.0313 ± 0.028"}
{"sequence": "AGCGCGCG", "PBM E-score of 8-mer": "0.144 ± 0.038"}
{"sequence": "ATCCTCAC", "PBM E-score of 8-mer": "0.346 ± 0.021"}
{"sequence": "ATTGAAGA", "PBM E-score of 8-mer": "-0.234 ± 0.1"}
{"sequence": "AAACCTCG", "PBM E-score of 8-mer": "0.0655 ± 0.067"}
{"sequence": "ACAGTCCT", "PBM E-score of 8-mer": "-0.0387 ± 0.018"}
{"sequence": "AGTGAGAA", "PBM E-score of 8-mer": "0.421 ± 0.025"}
{"sequence": "GCTCGCTA", "PBM E-score of 8-mer": "0.0199 ± 0.011"}
{"sequence": "AGTACCAT", "PBM E-score of 8-mer": "-0.111 ± 0.026"}
{"sequence": "ATAGGAGG", "PBM E-score of 8-mer": "-0.0128 ± 0.039"}
{"sequence": "TGGAATAA", "PBM E-score of 8-mer": "-0.163 ± 0.0046"}
{"sequence": "TTACCCAA", "PBM E-score of 8-mer": "-0.0926 ± 0.082"}
{"sequence": "ACCACACT", "PBM E-score of 8-mer": "0.289 ± 0.014"}
{"sequence": "CGGTATCC", "PBM E-score of 8-mer": "-0.331 ± 0.036"}
{"sequence": "CTGAGGGC", "PBM E-score of 8-mer": "-0.0851 ± 0.044"}
{"sequence": "ATAAATAT", "PBM E-score of 8-mer": "-0.0523 ± 0.0045"}
{"sequence": "GACGAAGA", "PBM E-score of 8-mer": "0.0626 ± 0.051"}
{"sequence": "ATAATTGA", "PBM E-score of 8-mer": "-0.00138 ± 0.11"}
{"sequence": "CCCTCGCG", "PBM E-score of 8-mer": "0.163 ± 0.022"}
{"sequence": "TAGTGCGA", "PBM E-score of 8-mer": "0.4056 ± 0.0024"}
{"sequence": "TAGCTTGA", "PBM E-score of 8-mer": "-0.284 ± 0.013"}
{"sequence": "CGTGTAAC", "PBM E-score of 8-mer": "0.071 ± 0.026"}
{"sequence": "ATCCCTCC", "PBM E-score of 8-mer": "-0.141 ± 0.028"}
{"sequence": "TCGCACCA", "PBM E-score of 8-mer": "0.44 ± 0.0079"}
{"sequence": "GAGATTAC", "PBM E-score of 8-mer": "0.0825 ± 0.058"}
{"sequence": "CGCACGGA", "PBM E-score of 8-mer": "-0.0191 ± 0.033"}
{"sequence": "CTACACCC", "PBM E-score of 8-mer": "0.139 ± 0.008"}
{"sequence": "CGGTCGCC", "PBM E-score of 8-mer": "0.0664 ± 0.09"}
{"sequence": "GCGGCCAC", "PBM E-score of 8-mer": "-0.195 ± 0.053"}
{"sequence": "CTAGTTTC", "PBM E-score of 8-mer": "0.00458 ± 0.0045"}
{"sequence": "GAACCGCC", "PBM E-score of 8-mer": "-0.0726 ± 0.028"}
{"sequence": "TCCCCGGA", "PBM E-score of 8-mer": "-0.21 ± 0.055"}
{"sequence": "CGTTCGCC", "PBM E-score of 8-mer": "0.0701 ± 0.066"}
{"sequence": "CAGGGGAA", "PBM E-score of 8-mer": "-0.11 ± 0.067"}
{"sequence": "CGTAAGGC", "PBM E-score of 8-mer": "-0.177 ± 0.092"}
{"sequence": "ACCTCGGC", "PBM E-score of 8-mer": "0.12 ± 0.035"}
{"sequence": "ACAGTGCC", "PBM E-score of 8-mer": "0.0659 ± 0.046"}
{"sequence": "ACTTGTAG", "PBM E-score of 8-mer": "0.0486 ± 0.077"}
{"sequence": "GACTTAGC", "PBM E-score of 8-mer": "0.133 ± 0.055"}
{"sequence": "TCCTCGAA", "PBM E-score of 8-mer": "-0.0611 ± 0.0042"}
{"sequence": "GAAAATTC", "PBM E-score of 8-mer": "0.0206 ± 0.059"}
{"sequence": "ATCCGCAC", "PBM E-score of 8-mer": "0.295 ± 0.061"}
{"sequence": "AGACGCAT", "PBM E-score of 8-mer": "-0.261 ± 0.026"}
{"sequence": "CCATAAAG", "PBM E-score of 8-mer": "-0.125 ± 0.03"}
{"sequence": "ATCTTGCC", "PBM E-score of 8-mer": "-0.08073 ± 0.00071"}
{"sequence": "CACAATCA", "PBM E-score of 8-mer": "0.21 ± 0.0085"}
{"sequence": "GGATACAC", "PBM E-score of 8-mer": "-0.187 ± 0.02"}
{"sequence": "ACTGACTG", "PBM E-score of 8-mer": "0.0982 ± 0.0061"}
{"sequence": "TAATACTA", "PBM E-score of 8-mer": "-0.193 ± 0.0034"}
{"sequence": "AACGGACA", "PBM E-score of 8-mer": "0.0752 ± 0.062"}
{"sequence": "ACGGAGCC", "PBM E-score of 8-mer": "-0.0846 ± 0.034"}
{"sequence": "AGGCGTAC", "PBM E-score of 8-mer": "-0.121 ± 0.0064"}
{"sequence": "CCTAATGC", "PBM E-score of 8-mer": "-0.00532 ± 0.015"}
{"sequence": "CTGATAAC", "PBM E-score of 8-mer": "0.0457 ± 0.0041"}
{"sequence": "ATCTAAAA", "PBM E-score of 8-mer": "-0.196 ± 0.0094"}
{"sequence": "CGCACTCC", "PBM E-score of 8-mer": "0.224 ± 0.035"}
{"sequence": "AATTTTTC", "PBM E-score of 8-mer": "0.0134 ± 0.053"}
{"sequence": "ACCCGAAT", "PBM E-score of 8-mer": "0.0345 ± 0.059"}
{"sequence": "AACCGCAA", "PBM E-score of 8-mer": "-0.214 ± 0.063"}
{"sequence": "CCAAAGCC", "PBM E-score of 8-mer": "-0.279 ± 0.059"}
{"sequence": "ACACAGTC", "PBM E-score of 8-mer": "0.0668 ± 0.064"}
{"sequence": "CCGTCTAG", "PBM E-score of 8-mer": "-0.123 ± 0.051"}
